# Experimental data published in PubChem BioAssay (NCATS).
# This list was built around the results that the source calls inconclusive (neither active nor inactive); the mix of calls is not that of the screen. For some assays here: Potencies beside an inconclusive call are fits to weak or partial responses and may not hold up. For some assays here: “Side channel” marks fits to a control or component signal instead of the main read-out. Active and inactive are the calls of the source. Unless noted, calls follow the shape of the dose curve; as a rule, active = well fitted curve in the direction sought with a large enough effect; inconclusive = small, poorly fitted or top-dose-only effect, or another doubt; inactive = no such curve, though single readings can be large; an effect the other way counts as inactive or inconclusive.
# Columns and labels:
# [1] = NFAT Signaling Pathway (AID 444; active = well fitted curve in either direction with a large enough effect, not every such curve was filed as active; inconclusive = small, poorly fitted or top-dose-only effect, or another doubt;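 also: carbachol stimulus at about its EC50 of 1 µM final; % is scaled to controls: 0 for no effect and ±100 for the full control effect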); conditions: Jurkat NFAT-bla M1, carbachol, beta-lactamase ratio, 5 h; at 7.69 µM (top of the series) unless noted
# Outline: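 Jurkat cells carrying an NFAT-driven β-lactamase reporter and co-transfected muscarinic M1 receptor were treated with compound plus carbachol (1 uM final, an EC50 level) for 5 h at 37 °C. CCF4 loading followed for 1 h at RT; 460/530 nm ratio gave %activity.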
# [2] = qHTS Assay for Identification of Small Molecule Antagonists for Thrombopoietin (TPO) Signaling Pathway (AID 918); conditions: TPO-dependent cell signaling reporter, antagonist mode; activity change, negative = inhibition: at 38.5 µM (top of the series); also: nearly all actives have a fitted effect of over 60% in size
# Outline: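 Antagonist mode at EC50 TPO (26 pM) in IL-3-free medium; murine Ba/F3 cells with human TPO receptor and GPIIb-promoter luciferase, 24 hrs at 37 C before luminescent detection.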
# [3] = target: Muscarinic acetylcholine receptor M1 (Rattus norvegicus) (UniProt P08482); assay: qHTS Assay for Antagonists of Acetylcholine Muscarinic M1 Receptor: Kinetic Measurement of Intracellular Calcium Response (AID 943); also: potency is read from the fitted curve at half-maximal effect; nearly all actives have a fitted effect of over 75% in size
# UniProt P08482, sequence (P08482 whole entry, looked up): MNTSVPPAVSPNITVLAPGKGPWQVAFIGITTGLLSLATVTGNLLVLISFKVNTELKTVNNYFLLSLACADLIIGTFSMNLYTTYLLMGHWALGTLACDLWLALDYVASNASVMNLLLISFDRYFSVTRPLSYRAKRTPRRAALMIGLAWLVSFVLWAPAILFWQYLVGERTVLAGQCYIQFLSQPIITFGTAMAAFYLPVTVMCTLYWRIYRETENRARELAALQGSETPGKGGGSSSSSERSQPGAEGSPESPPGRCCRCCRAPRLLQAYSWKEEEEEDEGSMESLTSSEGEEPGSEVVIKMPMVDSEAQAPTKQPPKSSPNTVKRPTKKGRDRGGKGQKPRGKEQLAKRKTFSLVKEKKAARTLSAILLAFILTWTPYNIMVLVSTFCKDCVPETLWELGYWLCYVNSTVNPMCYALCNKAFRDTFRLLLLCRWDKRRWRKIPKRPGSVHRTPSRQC
# Outline: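 Quantitative HTS in CHO-M1 (rat receptor) cells: 10 min compound exposure ahead of 100 nM carbachol, Fluo-4 fluorescence followed 4 min, value expressed as peak-to-basal ratio.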
# [4] = qHTS Assay for Lipid Storage Modulators (AID 1519; calls by dose curve; also: % is scaled to controls: 0 for no effect and ±100 for the full control effect); conditions: Drosophila S3 cells, BODIPY lipid droplet/cell ratio, laser cytometry, cells loaded with oleic acid; activity change, negative = inhibition: at 57.5 µM (top of the series) unless noted
# Outline: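 Cells seeded at 5,000 per well were treated with compounds over a concentration series and loaded with oleic acid (400 uM, as added). Lipid droplet fluorescence (488 nm excitation, 500-530 nm channel) was read by laser-scanning cytometry and normalized to 20 uM Triacsin C.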
# [5] = target: DNA repair nuclease/redox regulator APEX1 (Homo sapiens) (UniProt P27695); assay: qHTS Validation Assay for Inhibitors of the Human Apurinic/apyrimidinic Endonuclease 1 (APE1) (AID 1705; also: potency is read from the fitted curve at half-maximal effect)
# UniProt P27695, sequence (P27695 whole entry, looked up): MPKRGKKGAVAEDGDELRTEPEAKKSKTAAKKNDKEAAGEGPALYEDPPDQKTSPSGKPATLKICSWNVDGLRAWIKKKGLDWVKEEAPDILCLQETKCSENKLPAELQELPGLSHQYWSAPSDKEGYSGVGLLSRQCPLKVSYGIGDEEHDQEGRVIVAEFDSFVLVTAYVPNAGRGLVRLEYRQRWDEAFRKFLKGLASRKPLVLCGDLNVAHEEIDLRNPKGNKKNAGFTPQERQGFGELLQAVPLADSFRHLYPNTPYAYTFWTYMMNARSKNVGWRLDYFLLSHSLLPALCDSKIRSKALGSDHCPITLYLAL
# Outline: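 Activity read as rising fluorescence (598 nm emission, 525 nm excitation) from incision of a TAMRA/BHQ-2 duplex carrying a THF abasic site (50 nM). Compound and enzyme sat 15 min at RT before substrate start; signal change between first and third 60-s reads.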
# [6] = qHTS for differential inhibitors of proliferation of Plasmodium falciparum line 7G8 (AID 1815);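 also: potency is read from the fitted curve at half-maximal effect; parasite growth measured after three days of incubation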
# [7] = qHTS for differential inhibitors of proliferation of Plasmodium falciparum line 3D7 (AID 1876);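 also: parasite growth measured after three days of culture; 0% = vehicle wells and -100% = reference inhibitor wells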
# [8] = qHTS for differential inhibitors of proliferation of Plasmodium falciparum line D10 (AID 1877);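 also: parasites grown with compound for 72 h before DNA staining; plate controls were vehicle wells for no effect and reference inhibitor wells for full effect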
# [9] = qHTS for differential inhibitors of proliferation of Plasmodium falciparum line W2 (AID 1883); conditions: Potency: Plasmodium falciparum W2 proliferation inhibition;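 also: potency is read from the fitted curve at half-maximal effect; parasites grown with compound for 72 h before lysis and staining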
# [10] = target: DNA repair nuclease/redox regulator APEX1 (Homo sapiens) (UniProt P27695); assay: Confirmation qHTS Assay for Inhibitors of the Human Apurinic/apyrimidinic Endonuclease 1 (APE1) (AID 2572);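 also: fluorescence gain from purified APE1 cutting a TAMRA/BHQ-2 THF abasic duplex; % is scaled to controls: 0 for no effect and ±100 for the full control effect; nearly all actives have a fitted effect of over 30% in size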
# Outline: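 APE1 endonuclease activity was assessed as fluorescence released when the enzyme nicked a quenched abasic-site duplex (50 nM final). Compounds were preincubated with enzyme 15 min at room temperature before substrate addition.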
# [11] = target: Peroxisome proliferator-activated receptor gamma (Homo sapiens) (UniProt P37231); assay: qHTS assay for small molecule agonists of peroxisome proliferator-activated receptor gamma signaling (AID 588536; active = well fitted curve in the direction sought with a large enough effect in the signal ratio, with a control signal flat, not every such curve was filed as active; inconclusive = small, poorly fitted or top-dose-only effect, or effect the other way, or a change in a side signal; inactive = no such curve, though single readings can be large or run the other way; the % refers to the signal ratio; also: potency is read from the fitted curve at half-maximal effect); conditions: HEK293 PPARg-UAS-bla, beta-lactamase ratio, 16 h; activation: at 76.7 µM (top of the series), percent of rosiglitazone response, DMSO as zero
# Outline: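 This is an agonist-mode beta-lactamase reporter assay in HEK293 PPAR-gamma-UAS-bla cells with 1% charcoal/dextran FBS. Compound titrations ran 16 h at 37 C before CCF4 detection. EC50 and efficacy are Hill fits scaled to 2 uM rosiglitazone (100%) and DMSO basal.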
# [12] = target: Retinoic acid receptor RXR-alpha (Homo sapiens) (UniProt P19793); assay: qHTS assay for small molecule agonists of retinoid X receptor alpha signaling (AID 588544; calls by dose curve;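 also: 0% = DMSO basal wells and 100% = reference agonist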); conditions: HEK293T RXRa-UAS-bla, beta-lactamase reporter, 18 h; activation: at 76.7 µM (top of the series)
# UniProt P19793, sequence (P19793 whole entry, looked up): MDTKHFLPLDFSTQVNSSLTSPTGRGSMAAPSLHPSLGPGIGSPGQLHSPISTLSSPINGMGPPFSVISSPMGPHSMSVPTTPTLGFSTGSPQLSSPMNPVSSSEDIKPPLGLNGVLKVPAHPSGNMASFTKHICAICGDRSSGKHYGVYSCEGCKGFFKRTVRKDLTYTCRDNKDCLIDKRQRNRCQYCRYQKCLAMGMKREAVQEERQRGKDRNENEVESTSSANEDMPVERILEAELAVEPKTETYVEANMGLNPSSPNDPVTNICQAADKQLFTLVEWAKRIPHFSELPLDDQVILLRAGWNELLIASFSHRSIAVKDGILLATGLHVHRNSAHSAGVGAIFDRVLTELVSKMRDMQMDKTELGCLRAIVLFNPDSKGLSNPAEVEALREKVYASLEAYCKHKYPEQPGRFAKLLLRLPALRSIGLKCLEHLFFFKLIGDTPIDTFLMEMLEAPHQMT
# [13] = target: Thyroid hormone receptor beta (Homo sapiens) (UniProt P10828); assay: qHTS assay for small molecule agonists of thyroid hormone receptor beta signaling (AID 588545; calls by dose curve; also: potency is read from the fitted curve at half-maximal effect); conditions: TR-UAS-bla GripTite HEK 293, beta-lactamase ratio, agonist mode, 18 h; activation: at 76.7 µM, percent of T3 response, DMSO as zero
# UniProt P10828, sequence (P10828 whole entry, looked up): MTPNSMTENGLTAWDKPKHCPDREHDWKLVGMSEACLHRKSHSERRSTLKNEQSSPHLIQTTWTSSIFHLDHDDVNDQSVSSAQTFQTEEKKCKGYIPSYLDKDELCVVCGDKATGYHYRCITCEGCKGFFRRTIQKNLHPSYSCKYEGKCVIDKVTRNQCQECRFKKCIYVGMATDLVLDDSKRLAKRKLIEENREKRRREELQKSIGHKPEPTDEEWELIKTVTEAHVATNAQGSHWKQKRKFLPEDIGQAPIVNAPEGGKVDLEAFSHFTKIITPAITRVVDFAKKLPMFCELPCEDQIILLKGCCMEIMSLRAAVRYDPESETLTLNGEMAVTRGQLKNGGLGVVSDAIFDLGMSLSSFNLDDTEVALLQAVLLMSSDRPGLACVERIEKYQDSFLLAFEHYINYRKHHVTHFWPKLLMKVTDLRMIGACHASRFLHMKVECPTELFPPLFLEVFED
# Outline: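 Compounds were tested as agonists in TR-UAS-bla-GripTite HEK 293 cells. After 18 hrs at 37 C, CCF4 substrate was added and fluorescence read after 2 hrs at room temperature.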
# [14] = HTS Assay for Allosteric Antagonists of the Human D2 Dopamine Receptor: Hit Validation in HTRF (AID 624455);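 also: stable D1 dopamine receptor cell line scored for blocking the D1 response; % is scaled to controls: 0 for no effect and ±100 for the full control effect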
# Outline: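 Validation of hits used D1 receptor stably expressed in cells with HTRF detection of response inhibition; origin screen measured calcium flux following EC80 dopamine in a force-coupled, inducible Hek293 Trex D2 cell line.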
# [15] = qHTS for Activators of Parkin Expression: LOPAC Validation Assay (NLuc Reporter) (AID 720572;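 also: 0% = DMSO and 100% = positive control compound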)
# Outline: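 Cells harboring the Parkin-promoter coincidence reporter were treated for 24 h at seven concentrations. NLuc output was measured sequentially after the FLuc channel and scaled between DMSO and positive control values.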
# [16] = Primary qHTS for small molecule stabilizers of the endoplasmic reticulum resident proteome: Secreted ER Calcium Modulated Protein (SERCaMP) assay (AID 1508630); conditions: SH-SY5Y GLuc-SERCaMP (Gaussia luciferase released on ER calcium loss) secretion, thapsigargin, luminescence; activity change, negative = inhibition: at 38.4 µM (top of the series); also: % is scaled to controls: 0 for no effect and ±100 for the full control effect
# Outline: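 The SH-SY5Y reporter protocol was run at 3 concentrations up to 38.3 uM (primary) or 11 concentrations (follow-up): 16 h compound, 100 nM thapsigargin for 4 h, then extracellular luciferase luminescence.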
# Papain (Carica papaya) = Papain (Carica papaya) (UniProt P00784); assay: Primary qHTS assay for inhibitors of the protease papain (AID 1645873);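 also: papain turnover of Z-FR-AMC read as the AMC fluorescence gain over 10 min; potency is read from the fitted curve at half-maximal effect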
# UniProt P00784, sequence (P00784 whole entry, looked up): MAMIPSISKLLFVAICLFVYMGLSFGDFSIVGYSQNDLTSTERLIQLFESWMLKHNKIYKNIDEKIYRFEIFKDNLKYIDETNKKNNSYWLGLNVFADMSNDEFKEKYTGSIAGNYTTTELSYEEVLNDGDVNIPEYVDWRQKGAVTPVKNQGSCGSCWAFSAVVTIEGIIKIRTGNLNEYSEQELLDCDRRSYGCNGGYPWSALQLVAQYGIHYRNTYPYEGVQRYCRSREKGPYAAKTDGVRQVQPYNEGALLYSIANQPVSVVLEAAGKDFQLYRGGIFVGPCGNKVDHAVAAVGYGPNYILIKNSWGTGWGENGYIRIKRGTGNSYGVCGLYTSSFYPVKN
# Tags tell the direction and shape of the fitted curve or compound fluorescence and quenching.
compound,measurement,setting,value
Clc1cnc(Oc2ccc(Oc3ncc(Cl)cc3Cl)cc2)c(Cl)c1,"activity change, negative = inhibition",[1],inconclusive: -70% [inhibitor] [at 38 µM]
same,"activity change, negative = inhibition",[2],inconclusive: -22.4% [phenotype inactive]
same,Potency,[3],"inconclusive: 0.282 µM [inhibitor, full curve, poor fit]"
same,"activity change, negative = inhibition",[4],inconclusive: 0.988%
same,Potency,[5],"inconclusive: 39.8 µM [inhibitor, single point]"
same,Potency,[6],"inconclusive: 14.1 µM [inhibitor, partial curve]"
same,Potency,[7],inactive
same,Potency,[8],inactive
same,Potency,[9],"inconclusive: 7.94 µM [inhibitor, partial curve, poor fit]"
same,Potency,[10],inactive
same,Potency,[11],"inconclusive: 10 µM [activator, partial curve, poor fit]"
same,activation,[12],inconclusive: -26.9%
same,Potency,[13],"inconclusive: 63.1 µM [side channel, rising, single point]"
same,Potency,[14],inactive
same,Potency,[15],inactive
same,Potency,[16],inactive
same,Potency,Papain (Carica papaya),"inconclusive: 8.91 µM [inhibitor, single point]"
